Test results from PubChem BioAssay AID886 (National Center for Advancing Translational Sciences (NCATS), 2007).
In all, about 73,000 compounds went through this assay and about 2,500 (3.4%) were called active. The inconclusive results got no clear call from the source; some entries with a clear call stand among them for comparison. The call rests on the fitted dose curve; in most records, active means well fitted inhibition curve with a large enough effect; inconclusive means small, poorly fitted or top-dose-only effect; inactive means no such curve, though single readings can be large or run the other way. Potencies of inconclusive entries are doubtful fits and often do not repeat.

target: 3-hydroxyacyl-CoA dehydrogenase type-2 (Homo sapiens) (UniProt Q99714); assay: qHTS Assay for Inhibitors of HADH2 (Hydroxyacyl-Coenzyme A Dehydrogenase, Type II); details: recombinant HADH2, NADH fluorescence, beta-hydroxybutyryl-CoA; activity change, negative = inhibition: at 57.1 µM (top of the series); further: nearly all actives have a fitted effect of over 60% in size
Procedure, shortened: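 20 nM HADH2 + cpd, 15 min RT; add 1 mM NAD+/90 uM beta-hydroxybutyryl-CoA; kinetic fluorescence 360/450 nm, 4 min. Tris-HCl pH 9.0, 0.01% Tween-20.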
On the % scale 0 is the no-effect control and ±100 the full control effect; potency means the concentration at half of the fitted maximal effect; tags describe the fitted curve by direction and shape.

UniProt Q99714, sequence (Q99714 whole entry, looked up): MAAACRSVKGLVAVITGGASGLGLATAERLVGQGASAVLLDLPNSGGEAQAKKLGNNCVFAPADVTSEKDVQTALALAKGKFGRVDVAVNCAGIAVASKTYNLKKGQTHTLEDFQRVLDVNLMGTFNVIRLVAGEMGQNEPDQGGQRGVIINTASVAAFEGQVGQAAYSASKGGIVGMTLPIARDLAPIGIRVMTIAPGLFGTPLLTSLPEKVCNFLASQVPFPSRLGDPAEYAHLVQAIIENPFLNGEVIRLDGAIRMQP
UniProt Q99714, sequence (Q99714 whole entry, looked up): as above

Row | SMILES | Potency | activity change, negative = inhibition
1 | COc1ccccc1NC(=O)N(Cc1cc2cc(OC)c(OC)cc2[nH]c1=O)CC1CCCO1 (configuration not stated) | inconclusive: 25.1 µM [inhibitor, single point] | 
2 | CCCn1c(SCC(=O)c2ccc3c(c2)OCCO3)nnc1C(C)C | inconclusive: 15.8 µM [inhibitor, partial curve] | 
3 | COc1cc2[nH]c(=O)n(CCC(=O)N3CCN(c4cccc(C)c4C)CC3)c(=O)c2cc1OC | inconclusive: 39.8 µM [inhibitor, single point] | 
4 | COc1cc(N=c2ssnc2Cl)cc(OC)c1OC | active: 0.631 µM | 
5 | COC(=O)C1=C(CSc2nncn2C)NC(=O)NC1c1cc(C)ccc1C (configuration not stated) | inconclusive: 31.6 µM [inhibitor, single point] | 
6 | Cc1ccc(-n2ncc3c(NCc4ccccc4)ncnc32)cc1 | inconclusive: 39.8 µM [inhibitor, single point] | 
7 | COCCN(CCOC)c1nc(C)nc2c1nc(-c1ccccc1)n2CCCN(C)C | inconclusive: 39.8 µM [inhibitor, single point] | 
8 | O=c1oc2c(CN3CCOCC3)c(O)c(Cl)cc2c2c1CCC2 | inactive | 
9 | Cc1ccc(OCCNC(=O)c2ccccc2N)cc1 | inconclusive: 39.8 µM [inhibitor, single point] | 
10 | CC(C)C[C@@H](CC(=O)N[C@@H](CCC(=O)O)CC(=O)O)NC(=O)[C@@H]1CCCC[C@H]1NC(=O)C[C@H](CCCN)NC(=O)C[C@H](Cc1ccccc1)NC(=O)[C@@H]1CNCC[C@H]1N | inactive | 
11 | O=C(CCCn1c(=S)[nH]c2ccsc2c1=O)NCc1ccco1 | inconclusive: 25.1 µM [inhibitor, partial curve] | 
12 | Cc1cccc(CNc2ccnc(-c3ccc(N(C)C)cc3)n2)c1 | inconclusive: 39.8 µM [inhibitor, single point] | 
13 | Nc1cc(S(N)(=O)=O)ccc1SSc1ccc(S(N)(=O)=O)cc1N | inconclusive: 0.398 µM [inhibitor, full curve] | 
14 | O=C(CCSc1ccc(F)cc1)Nc1ccc(-n2cnnn2)cc1 | inactive | 
15 | CN(C)C=Nc1c(Br)cc(Br)c2nonc12 | active: 0.794 µM | 
16 | COc1ccc(OC)c(-n2nnnc2SCC(=O)NCc2ccc3c(c2)OCO3)c1 | inactive | 
17 | CC(C)CNc1nc(N)[nH]c(=O)c1NC=O |  | inactive: -5.95% [at 11.4 µM]
18 | O=S1(=O)c2cccc3cccc(c23)N1Cc1nnc(-c2ccccc2Br)o1 | inconclusive: 39.8 µM [inhibitor, single point] | 
19 | CO[C@]1(NC(=O)[C@H](C(=O)O)c2ccc(O)cc2)C(=O)N2C(C(=O)O)=C(CSc3nnnn3C)CO[C@H]21 | inconclusive: 10 µM [inhibitor, partial curve] | 
20 | CCCCC#CC1C=CC(OC(C)=O)C(COC(C)=O)O1 (configuration not stated) | inconclusive: 0.794 µM [inhibitor, single point] | 
21 | CCOC(=O)N1CCN(C(=O)c2ccc3nc4ccc(Cl)cc4c(=O)n3c2)CC1 | inconclusive: 31.6 µM [inhibitor, single point] | 
22 | O=C1C(=O)N(Cc2ccc(Cl)c(Cl)c2)c2ccccc21 | inconclusive: 12.6 µM [inhibitor, full curve] | 
23 | CCn1c(C(=O)OC)cc2c1ccn2-c1ccc(F)cc1 | inconclusive: 39.8 µM [inhibitor, single point] | 
24 | Cc1oc2c(CN3CCCC3)c(O)ccc2c(=O)c1Oc1ccccc1Br | active: 31.6 µM | 

Row | SMILES | Potency | activity change, negative = inhibition
25 | COc1ccccc1NC=C1C(=O)OC(C)(C)OC1=O | inactive | 
26 | COCCNc1ncnc2nc[nH]c12 | inactive | 
27 | Cn1c(=O)c2c(ncn2CC(=O)Nc2cc(Cl)c(Cl)cc2Cl)n(C)c1=O | inactive | 
28 | CN(C)c1[nH]c(=O)c(C#N)c2c1CCN2Cc1ccccc1 | inconclusive: 39.8 µM [inhibitor, single point] | 
29 | CS(=O)(=O)Nc1ccccc1C(=O)NC1CC2CCC1C2 (configuration not stated) | active: 20 µM | 
30 | CCc1nc2scc(-c3ccccc3)c2c(=O)n1N | inconclusive: 39.8 µM [inhibitor, single point] | 
31 | CC1=C(/C=C/C(C)=C/C=C/C(C)=C/C(=O)Nc2ccc(O)cc2)C(C)(C)CCC1 | inconclusive: 25.1 µM [inhibitor, single point] | 
32 | Cc1cc(C(N)=O)c2cc(Br)ccc2n1 | inactive | 
33 | N#CCCn1cc(C(CC(=O)c2ccccc2)C(=O)O)c2ccccc21 (configuration not stated) | inactive | 
34 | CC1(C)CC(=O)C(C=NCC2CCNCC2)=C(O)C1 | inactive | 
35 | CN1C(=O)c2ccccc2N(C)C1c1cccs1 (configuration not stated) | inconclusive: 39.8 µM [inhibitor, single point] | 
36 | O=C(Nc1ccc(Cl)cc1C(=O)O)c1ccc2c(c1)C(=O)N(Cc1ccco1)C2=O | inconclusive: 31.6 µM [inhibitor, single point] | 
37 | COC(=O)C1=CN(C)C=C(C(=O)OC)C1c1ccc(Cl)cc1Cl | inactive | 
38 | N#Cc1nc(-c2ccco2)oc1NCCc1ccccc1 | inconclusive: 31.6 µM [inhibitor, single point] | 
39 | c1cncc(C2Nc3ccccc3-c3nc4ccccc4n32)c1 (configuration not stated) | active: 31.6 µM | 
40 | CCOC(=O)c1oc2ccccc2c1NC(=O)c1cc(OC)cc(OC)c1 | inconclusive: 39.8 µM [inhibitor, single point] | 
41 | O=C(NCCCn1ccnc1)Nc1cccc(Cl)c1 | inactive | 
42 | O=C(Nc1nc2ccccc2[nH]1)c1ccc(F)cc1 | inconclusive: 39.8 µM [inhibitor, single point] | 
43 | CCOC(=O)CC(=O)CSc1nc2ccc(C)cc2cc1C#N | inconclusive: 15.8 µM [inhibitor, partial curve] | 
44 | O=S(=O)(c1cccs1)N1CN(CC2CCCO2)c2nc3ccccc3nc21 (configuration not stated) | inconclusive: 0.199 µM [inhibitor, full curve, poor fit] | 
45 | O=C(CSc1nc2scc(-c3ccco3)c2c(=O)n1-c1ccccc1)NCC1CCCO1 (configuration not stated) | inconclusive: 25.1 µM [inhibitor, partial curve] | 
46 | CC(=O)N1CN(C2CCS(=O)(=O)C2)Cc2c1sc1c2CCCC1 (configuration not stated) | inactive | 
47 | O=C(O)Cn1ncc2c1-c1ccoc1CC2 | inconclusive: 39.8 µM [inhibitor, single point] | 
